Laboratory results taken from the supplement of paper PMC9446081.
The whole screen tested about 39,000 compounds, of which about 220 (0.56%) showed activity. Some of the results follow.

test system: Escherichia coli K-12 BW25113; experiment: relative growth (OD600 normalised to plate interquartile mean) (fraction); higher = less growth inhibition, active = 0.2 or less; conditions: 50 µM; LB; incubation time: overnight (16-24 h)
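Note: static incubation at 37 °C against the wild-type strain, values averaged over two biological replicates.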

Row | SMILES | relative growth
1 | C[C@@H]1CN([C@@H](C)CO)S(=O)(=O)c2ccc(C#Cc3ccccc3F)cc2O[C@H]1CN(C)CC1CC1 | inactive: 1.03
2 | CN1CCN(C(=O)C[C@H]2CC[C@@H]3[C@H](COC[C@H](O)CN3C(=O)Nc3cc(Cl)cc(Cl)c3)O2)CC1 | inactive: 0.917
3 | Cc1ccccc1-n1ccc(=O)[nH]c1=O | inactive: 0.93
4 | C[C@@H]1CN([C@@H](C)CO)C(=O)c2cc(NC(=O)Cc3cn(C)c4ccccc34)ccc2O[C@@H]1CN(C)Cc1ccc(Oc2ccccc2)cc1 | inactive: 0.983
5 | C[C@H](CO)N1C[C@H](C)[C@H](CN(C)C(=O)Nc2cccc3ccccc23)Oc2ccc(NC(=O)Cc3ccccc3)cc2CC1=O | inactive: 0.97
6 | C[C@H](CO)N1C[C@H](C)[C@@H](CN(C)C(=O)Cc2ccncc2)Oc2cc(C3=CCCC3)ccc2S1(=O)=O | inactive: 0.997
7 | CCNC(=O)C[C@H]1CC[C@H]2[C@@H](COC[C@@H](O)CN2C(=O)Nc2c(C)noc2C)O1 | inactive: 1.01
8 | C[C@H]1CN([C@@H](C)CO)C(=O)c2cc(NS(=O)(=O)c3ccccc3)ccc2O[C@H]1CN(C)C(=O)Nc1cccc2ccccc12 | inactive: 0.978
9 | Cc1ccc(S(=O)(=O)N(C)C[C@H]2Oc3ccc(NS(C)(=O)=O)cc3CC(=O)N([C@@H](C)CO)C[C@H]2C)cc1 | inactive: 1.01
10 | NC(=O)c1ncn([C@H]2O[C@@H](COP(=O)(O)O)[C@@H](O)[C@@H]2O)c1N | inactive: 0.978
11 | CCc1c(C)[nH]c(=S)c(C#N)c1C | inactive: 1.01
12 | O=C(C[C@@H]1C=C[C@H](NS(=O)(=O)c2ccc(F)cc2)[C@@H](CO)O1)NCCN1CCCCC1 | inactive: 1
13 | C[C@H]1CN([C@@H](C)CO)C(=O)c2cc(NC(=O)Nc3cccc4ccccc34)ccc2O[C@@H]1CN(C)S(=O)(=O)c1ccc(Cl)cc1 | inactive: 1.05
14 | C[C@@H]1CN([C@H](C)CO)C(=O)Cc2cc(NC(=O)Nc3cccc4ccccc34)ccc2O[C@@H]1CN(C)CC1CCCCC1 | inactive: 1.03
15 | O=C(C[C@H]1C[C@@H]2c3cc(NC(=O)c4ccc5c(c4)OCO5)ccc3O[C@@H]2[C@H](CO)O1)NCC(F)(F)F | inactive: 0.991
16 | C[C@@H]1CN([C@H](C)CO)C(=O)c2cc(NC(=O)Cn3cnnn3)ccc2O[C@H]1CN(C)Cc1ccccc1 | inactive: 1.02
17 | Cc1ccc(S[C@]2(C(=O)NC(C)C)CC(=O)N(Cc3ccccc3C(F)(F)F)[C@@H]2c2ccc(CO)cc2)cc1 | inactive: 0.95
18 | COc1ccc(S(=O)(=O)Nc2ccc3c(c2)C(=O)N([C@@H](C)CO)C[C@@H](C)[C@H](CN(C)S(C)(=O)=O)O3)cc1 | inactive: 1.01
19 | C[C@H](O)C#Cc1ccc2c(c1)O[C@@H](CN(C)C(=O)Nc1ccccc1)[C@H](C)CN([C@@H](C)CO)S2(=O)=O | inactive: 1

Row | SMILES | relative growth
20 | C[C@H]1CN(C)C(=O)c2cc(NS(C)(=O)=O)ccc2O[C@H]1CN(C)S(C)(=O)=O | inactive: 0.997
21 | C[C@@H]1CCCCO[C@@H](CN(C)S(=O)(=O)c2ccc(Cl)cc2)[C@@H](C)CN([C@@H](C)CO)C(=O)c2cc(NC(=O)CCC(F)(F)F)ccc2O1 | inactive: 1
22 | C[C@@H]1CN([C@H](C)CO)C(=O)Cc2cc(NC(=O)CCCCCC(=O)Nc3ccccc3N)ccc2O[C@H]1CN(C)C(=O)Nc1ccc(F)cc1 | inactive: 0.974
23 | COc1ccc(S(=O)(=O)Nc2cccc3c2O[C@@H](CN(C)S(=O)(=O)c2ccc(F)cc2)[C@@H](C)CN([C@H](C)CO)C3=O)cc1 | inactive: 1.04
24 | COc1ccc([C@@H]([C@H](Cc2ccccc2)OC(C)=O)N2C[C@@H](NC(=O)C(Cl)(Cl)Cl)[C@@H]3C(=NO[C@H]3c3ccccc3)[C@@H]2Cc2ccccc2)cc1 | inactive: 0.994
25 | Cc1noc(C)c1S(=O)(=O)Nc1ccc2c(c1)C(=O)N([C@H](C)CO)C[C@H](C)[C@H](CN(C)Cc1ccccc1)OCCCC[C@H](C)O2 | inactive: 0.987
26 | O=C(C[C@@H]1CC[C@@H](NS(=O)(=O)c2ccccc2)[C@H](CO)O1)NCc1ccncn1 | inactive: 0.916
27 | Cc1ccc(S(=O)(=O)N(C)C[C@H]2OCCCC[C@H](C)Oc3ccc(NC(=O)Cc4ccccc4)cc3C(=O)N([C@H](C)CO)C[C@H]2C)cc1 | inactive: 1.01
28 | C[C@@H]1CCCCO[C@@H](CN(C)C(=O)Nc2ccc(C(F)(F)F)cc2)[C@@H](C)CN([C@H](C)CO)C(=O)c2cc(NC(=O)NC3CCCCC3)ccc2O1 | inactive: 1.04
29 | CC(C)NC(=O)Nc1ccc2c(c1)C(=O)N([C@H](C)CO)C[C@H](C)[C@H](CN(C)S(=O)(=O)c1cn(C)cn1)OCCCC[C@@H](C)O2 | inactive: 1.01
30 | C[C@H](CO)N1C[C@H](C)[C@@H](CN(C)S(=O)(=O)c2ccc(F)cc2)Oc2cc(Br)ccc2S1(=O)=O | inactive: 1.01
31 | COc1ccc(S(=O)(=O)Nc2ccc3c(c2)C(=O)N([C@H](C)CO)C[C@H](C)[C@H](CN(C)Cc2ccc(C(=O)O)cc2)OCCCC[C@H](C)O3)cc1 | inactive: 1
32 | CCOC(=O)c1cccnc1N | inactive: 0.899
33 | C[C@@H]1CN([C@H](C)CO)C(=O)c2cc(C#Cc3ccncc3)cnc2O[C@H]1CN(C)C(=O)c1ccccc1F | inactive: 0.994
34 | CO[C@@H](CN(C)S(=O)(=O)c1ccc(C)cc1)[C@@H](C)CN([C@H](C)CO)S(=O)(=O)c1cccc(Cl)c1 | inactive: 1.03
35 | O=C1OCC=C[C@H]2O[C@@]34C=CCN(c5ccc6ccccc6c5)C(=O)[C@H]3N(CCCCCCO)C(=O)[C@@H]4[C@@H]12 | inactive: 1
36 | CCCN(C)C[C@@H]1OCCCC[C@@H](C)Oc2ccc(NS(=O)(=O)c3ccc(Cl)cc3)cc2C(=O)N([C@@H](C)CO)C[C@@H]1C | inactive: 0.992
37 | Cc1ccc(S(=O)(=O)Nc2cccc3c2O[C@@H](CN(C)S(=O)(=O)c2ccccc2)[C@H](C)CN([C@H](C)CO)C3=O)cc1 | inactive: 0.9
38 | OC[C@H]1O[C@@H](O)[C@@H](O)[C@@H](O)[C@@H]1O | inactive: 1
